Test results: PMC6919601, “Identification of Plasmodium dipeptidyl aminopeptidase allosteric inhibitors by high throughput screening” (PLoS ONE, 2019)
About 230 (0.21%) of roughly 110,000 compounds showed an effect of 50% or more. The list shows a part of the results.

biological target: DPAP1 (Plasmodium falciparum, UniProt Q8IIJ9); assay: primary screen, percent inhibition; read by cleavage of a fluorogenic dipeptide substrate; higher = more effect of the substance; set-up: species or system P. falciparum D10 trophozoite lysates; single well
Sequence (Q8IIJ9 whole entry, looked up): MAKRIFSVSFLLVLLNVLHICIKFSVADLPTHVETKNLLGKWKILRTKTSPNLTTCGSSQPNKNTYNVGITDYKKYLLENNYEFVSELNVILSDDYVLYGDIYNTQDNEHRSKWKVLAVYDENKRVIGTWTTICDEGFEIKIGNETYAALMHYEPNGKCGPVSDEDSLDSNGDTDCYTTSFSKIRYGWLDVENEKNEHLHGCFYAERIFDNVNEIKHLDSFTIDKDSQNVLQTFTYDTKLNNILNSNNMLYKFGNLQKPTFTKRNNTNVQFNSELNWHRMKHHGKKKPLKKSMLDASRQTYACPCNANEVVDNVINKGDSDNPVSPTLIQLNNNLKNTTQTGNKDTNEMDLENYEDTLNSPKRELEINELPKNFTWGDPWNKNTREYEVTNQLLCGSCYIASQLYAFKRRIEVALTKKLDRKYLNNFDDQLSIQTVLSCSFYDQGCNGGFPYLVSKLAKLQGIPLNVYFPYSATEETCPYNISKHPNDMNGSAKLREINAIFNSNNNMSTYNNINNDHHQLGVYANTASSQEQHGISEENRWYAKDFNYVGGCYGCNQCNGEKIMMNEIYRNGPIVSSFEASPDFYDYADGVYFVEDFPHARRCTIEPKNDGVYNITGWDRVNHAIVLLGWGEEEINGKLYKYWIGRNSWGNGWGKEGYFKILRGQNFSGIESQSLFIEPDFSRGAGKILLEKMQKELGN
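Also: 30 min substrate incubation versus DMSO and 10 µM JCP410 controls.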

Question: With `O=C(CCSc1nc2cc(Cl)ccc2o1)N1CCOCC1` as the compound, how does the “% Inhibition @ 10 uM” value read?
Answer: -3.45%

Question: How did the “% Inhibition @ 10 uM” value turn out when `CN(C)CCN(Cc1ccccc1)Cc1ccc(Br)cc1` was run?
Answer: -3.58%

Question: For `c1sc2c(c1CN1CCCCCC1)CCCC2`, which “% Inhibition @ 10 uM” value is on record?
Answer: -0.154%

Question: How did the “% Inhibition @ 10 uM” value turn out when `OCCn1c(CCCCc2nc3ccccc3n2CCO)nc2ccccc21` was run?
Answer: 1.74%

Question: With `CCCCOC(=O)c1ccc(NC(=O)OC)cc1` as the compound, how does the “% Inhibition @ 10 uM” value read?
Answer: 3.35%

Question: With `COc1cc(NC(=O)c2sc3nc(-c4cccs4)ccc3c2N)cc(OC)c1OC` as the compound, how does the “% Inhibition @ 10 uM” value read?
Answer: 6.65%

Question: With `Cc1nn(C(=O)CCC(=O)NCc2cccs2)c2ccccc12` as the compound, how does the “% Inhibition @ 10 uM” value read?
Answer: -4.71%

Question: For `COc1ccc(Cl)cc1N(CC(=O)NC1CC2CCC1C2)S(=O)(=O)c1ccccc1` (centres unmarked), which “% Inhibition @ 10 uM” value is on record?
Answer: 0.00477%

Question: `Cc1cc2c(c(=O)o1)C(c1ccc(Br)cc1)C(C#N)=C(N)O2` (centres unmarked) was tested. Which “% Inhibition @ 10 uM” value did it give?
Answer: 4.66%

Question: With `NC(=O)C1CCN(C(=O)/C(=C/c2ccco2)NC(=O)c2ccccc2)CC1` as the compound, how does the “% Inhibition @ 10 uM” value read?
Answer: -0.996%

Question: How did the “% Inhibition @ 10 uM” value turn out when `CC(C)CCNc1sc(S(C)(=O)=O)nc1S(=O)(=O)c1ccc(Cl)cc1` was run?
Answer: -2.25%

Question: `O=C1CCN(c2cccc(Cl)c2)N1` was tested. Which “% Inhibition @ 10 uM” value did it give?
Answer: 8.73%

Question: `CC1(C)CC(=O)C2=C(C1)N(C1CCCCC1)C(=O)C2(NC(=O)c1ccccc1)C(F)(F)F` (centres unmarked) was tested. Which “% Inhibition @ 10 uM” value did it give?
Answer: -3.33%

Question: For `O=C(NCc1ccc2c(c1)OCO2)c1ccc2c(c1)OCO2`, which “% Inhibition @ 10 uM” value is on record?
Answer: 2.23%

Question: `CCOc1ccc(-c2cc(NC(=O)c3noc4c3COc3ccccc3-4)on2)cc1OCC` was tested. Which “% Inhibition @ 10 uM” value did it give?
Answer: -1.72%

Question: For `CCN1CCN(c2ccc([N+](=O)[O-])cn2)CC1`, which “% Inhibition @ 10 uM” value is on record?
Answer: -1.56%

Question: For `OCC1OC(n2cnc3c(Cl)ncnc32)C(O)C1O` (centres unmarked), which “% Inhibition @ 10 uM” value is on record?
Answer: 2.79%

Question: For `COc1cnn(C(C)(C)C)c(=O)c1O`, which “% Inhibition @ 10 uM” value is on record?
Answer: -0.856%

Question: `Cc1occc1C(=O)Nc1sc(C)c(C)c1C#N` was tested. Which “% Inhibition @ 10 uM” value did it give?
Answer: -2.89%

Question: How did the “% Inhibition @ 10 uM” value turn out when `Cc1ccc(SCCC(=O)Nc2ccccc2Br)cc1` was run?
Answer: -5.44%

Question: For `CCN(CC)c1ccc2cc(-c3ncc(-c4ccc(Cl)cc4)o3)c(=O)oc2c1`, which “% Inhibition @ 10 uM” value is on record?
Answer: -11.6%

Question: `O=C(c1ccccc1)N1CN(C(=O)c2ccccc2)CN(C(=O)c2ccccc2)C1` was tested. Which “% Inhibition @ 10 uM” value did it give?
Answer: 10%

Question: Which “% Inhibition @ 10 uM” value does the source give for `Cc1ccc(-c2csc(/C(C#N)=C/c3ccc(Br)o3)n2)c(C)c1` here?
Answer: -0.591%

Question: How did the “% Inhibition @ 10 uM” value turn out when `Cc1nc[nH]c1CSCc1ccc(OCCN(C)C)cc1` was run?
Answer: -4.13%

Question: Which “% Inhibition @ 10 uM” value does the source give for `Cc1noc(C)c1CS(=O)(=O)C[C@H](NC(=O)N1CCOCC1)C(=O)N[C@H](/C=C/S(=O)(=O)c1ccccc1)CCc1ccccc1` here?
Answer: -3.49%

Question: How did the “% Inhibition @ 10 uM” value turn out when `COc1ccc(C2=N/C(=C\c3cc(OC)c(OC)cc3OC)C(=O)O2)c(Cl)c1` was run?
Answer: -3.81%

Question: With `COC(=O)c1ccc(-c2ccc(/C=C3/C(=N)N4OC(C)=CC4=NC3=O)o2)cc1` as the compound, how does the “% Inhibition @ 10 uM” value read?
Answer: 2%

Question: Which “% Inhibition @ 10 uM” value does the source give for `COCCN1C(=O)c2ccccc2C(C(=O)NCCC(C)C)C1c1c[nH]c2ccccc12` (centres unmarked) here?
Answer: -2.19%

Question: Which “% Inhibition @ 10 uM” value does the source give for `Cc1nc2c(-c3ccc(F)cc3)c(C)nn2c(C)c1CCC(=O)NCc1ccccc1` here?
Answer: 1.26%

Question: Which “% Inhibition @ 10 uM” value does the source give for `CC(NS(=O)(=O)c1ccc(OCC(=O)Nc2cccc(Br)c2)cc1)c1ccccc1` (centres unmarked) here?
Answer: 7.78%

Question: Which “% Inhibition @ 10 uM” value does the source give for `CN1CCN(Cc2ccccc2Sc2ccccc2CO)CC1` here?
Answer: -1.06%

Question: `COc1cc(NC(=O)c2ccco2)c(OC)cc1Cl` was tested. Which “% Inhibition @ 10 uM” value did it give?
Answer: -1.77%

Question: `COCCCN(Cc1ccco1)C(CNS(=O)(=O)c1ccc(Cl)cc1)c1ccccc1` (centres unmarked) was tested. Which “% Inhibition @ 10 uM” value did it give?
Answer: -4.19%

Question: How did the “% Inhibition @ 10 uM” value turn out when `NC1=NC(=O)/C(=C\c2cccc(OCc3ccccc3)c2)S1` was run?
Answer: 2.92%

Question: How did the “% Inhibition @ 10 uM” value turn out when `COc1ccc2c(CNCc3ccco3)c(C(=O)O)n(Cc3ccc(F)cc3)c2c1` was run?
Answer: -0.959%

Question: With `COC(=O)C1=CN(CCc2ccccc2)C=C(C(=O)OC)C1c1ccc(Cl)cc1` as the compound, how does the “% Inhibition @ 10 uM” value read?
Answer: 3.86%

Question: With `COc1cc(/C=C2/NC(=O)NC2=O)c(Br)c(Br)c1O` as the compound, how does the “% Inhibition @ 10 uM” value read?
Answer: -3.06%

Question: `CCC(C(=O)NC(CC(=O)O)c1ccc(OC(C)C)cc1)c1ccccc1` (centres unmarked) was tested. Which “% Inhibition @ 10 uM” value did it give?
Answer: 8.87%

Question: Which “% Inhibition @ 10 uM” value does the source give for `CCNC(=O)c1c(C)nc2ccccn12` here?
Answer: -9.52%

Question: `CCOCCc1nnc(NC(=O)c2cccc(Br)c2)s1` was tested. Which “% Inhibition @ 10 uM” value did it give?
Answer: 9.39%

Question: Which “% Inhibition @ 10 uM” value does the source give for `NC(=O)OCCNC(=O)c1cc2ccccc2oc1=O` here?
Answer: 1.7%

Question: How did the “% Inhibition @ 10 uM” value turn out when `O=C(Nc1ncc(Cc2cccc3ccccc23)s1)c1ccco1` was run?
Answer: -4.35%

Question: Which “% Inhibition @ 10 uM” value does the source give for `Cc1ccc(C(=O)CC2(O)C(=O)Nc3ccc(Br)cc32)o1` (centres unmarked) here?
Answer: -4.15%

Question: Which “% Inhibition @ 10 uM” value does the source give for `Cc1cc(C(F)(F)F)nn1CC(=O)Nc1sc2c(c1C(N)=O)CCC(C)C2` (centres unmarked) here?
Answer: -2.15%

Question: How did the “% Inhibition @ 10 uM” value turn out when `CCOC(=O)C1CCCCN1Cc1ccc(F)c(Br)c1` (centres unmarked) was run?
Answer: -1.86%

Question: `O=c1oc2cc(O)ccc2cc1-c1csc(-c2ccc(Cl)cc2)n1` was tested. Which “% Inhibition @ 10 uM” value did it give?
Answer: -0.569%

Question: How did the “% Inhibition @ 10 uM” value turn out when `COc1ccc(CCNc2nc3c(S(=O)(=O)c4ccccc4)nnn3c3ccccc23)cc1OC` was run?
Answer: -4.85%

Question: `Brc1c(-c2ccccc2)nc2ccccn12` was tested. Which “% Inhibition @ 10 uM” value did it give?
Answer: 2.31%

Question: How did the “% Inhibition @ 10 uM” value turn out when `CC(=O)Nc1ccc(NC(=O)c2ccc(C(=O)Nc3ccc(NC(C)=O)cc3Br)cc2)c(Br)c1` was run?
Answer: -6.07%

Question: With `CCCCN(CC)CCCNC(=O)Cn1ncc2c3ccccc3n(Cc3ccccc3)c2c1=O` as the compound, how does the “% Inhibition @ 10 uM” value read?
Answer: -1.58%

Question: With `COC(=O)c1ccc2c(c1)C(C)(C)C(/C=C/c1ccc(OC)c(OC)c1OC)=[N+]2C` as the compound, how does the “% Inhibition @ 10 uM” value read?
Answer: 1.74%

Question: `Cc1cccc(C(=O)/C=C/[n+]2cc(Cl)ccc2N)c1` was tested. Which “% Inhibition @ 10 uM” value did it give?
Answer: -2.77%

Question: With `CC(N)C(=O)NC(Cc1ccc(O)cc1)C(=O)O` (centres unmarked) as the compound, how does the “% Inhibition @ 10 uM” value read?
Answer: 0.566%

Question: With `CCCCN(CC)C(=O)c1cn(CC)c2nc(C)ccc2c1=O` as the compound, how does the “% Inhibition @ 10 uM” value read?
Answer: -6.5%

Question: How did the “% Inhibition @ 10 uM” value turn out when `CCCCOc1ccc(C2CC(=O)C3=C(C2)c2c(ccc4ccccc24)NC3c2ccc(OC)c(OC)c2)cc1` (centres unmarked) was run?
Answer: -0.736%

Question: `O=c1nc2s/c(=C\C=C\c3ccccc3)c(=O)n2nc1Cc1ccc(Cl)cc1` was tested. Which “% Inhibition @ 10 uM” value did it give?
Answer: -6.71%

Question: `COc1ccccc1S(=O)(=O)c1c(C)cc(C)cc1C` was tested. Which “% Inhibition @ 10 uM” value did it give?
Answer: 4.16%

Question: With `COCCN1C(=O)C(O)=C(C(=O)c2cc3ccccc3o2)C1c1cccc(OC)c1` (centres unmarked) as the compound, how does the “% Inhibition @ 10 uM” value read?
Answer: -5%

Question: How did the “% Inhibition @ 10 uM” value turn out when `COc1cc(OC)c(C2Nc3ccccc3N=C3CC(C)(C)CC(O)=C32)cc1OC` (centres unmarked) was run?
Answer: -6.69%

Question: `Cc1ccc2c(=O)cc(C(=O)Nc3cccnc3)oc2c1C` was tested. Which “% Inhibition @ 10 uM” value did it give?
Answer: -1.47%

Question: For `O=C(Nc1ccc2c(c1)OCCO2)C12CC3CC(C1)CC(n1cnc(Br)n1)(C3)C2`, which “% Inhibition @ 10 uM” value is on record?
Answer: -16.1%

Question: `O=[N+]([O-])c1ccc2nc3c4ccccc4n(CCCN4CCCCC4)c3cc2c1` was tested. Which “% Inhibition @ 10 uM” value did it give?
Answer: 1.9%
